Screen size: about 39,000 compounds; about 220 (0.56%) showed activity. The list shows a part of the results.

From the supplement of paper PMC9446081 come the findings set out here.
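Further: static incubation at 37 °C against the wild-type strain, values averaged over two biological replicates.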

The experiment deals with Escherichia coli K-12 BW25113. The experiment is described as follows: relative growth (OD600 normalised to plate interquartile mean) (fraction); higher = less growth inhibition, active = 0.2 or less. Conditions: 50 µM; LB; incubation time: overnight (16-24 h).
As to `COc1ccc(CNC(=O)N(C)C[C@H]2OCc3ccccc3-c3c(n(C)c4ccccc34)C(=O)N([C@@H](C)CO)C[C@@H]2C)cc1`, the relative growth is inactive: 0.903.

As to `C[C@H](CO)N1C[C@H](C)[C@@H](CN(C)C(=O)N[C@H](C)c2ccccc2)OCc2ccccc2-c2c(n(C)c3ccccc23)C1=O`, the relative growth was inactive: 0.999.

Regarding `COc1ccc(C(=O)Nc2cccc(CN3C(=O)[C@@]4(O[C@@H](CC(=O)N(CCO)Cc5ccccc5)[C@H]([Si](C)(C)c5ccc(OC)cc5)[C@H]4C)c4ccccc43)c2)cc1`, the relative growth is inactive: 0.997.

Consider `N[C@@H](Cc1ccc2nonc2c1)C(=O)O`, for which the relative growth is inactive: 1.02.

Consider `c1ccc([C@@H]2Oc3ccccc3[C@@H]3Oc4ccccc4C[C@@H]23)cc1`, for which the relative growth is inactive: 1.05.

`CO[C@H]1CN(C)C(=O)c2ccc(NC(=O)Nc3ccc(Cl)cc3)cc2OC[C@@H](C)N(C(=O)Nc2c(C)noc2C)C[C@H]1C`: the relative growth was inactive: 0.988.

Turning to `O=C(NCCN1CCOCC1)C(=O)NC[C@H]1COc2ccccc2O1`, the relative growth is inactive: 1.01.

Regarding `C[C@@H]1CN([C@H](C)CO)S(=O)(=O)c2ccc(C#CCN(C)C)cc2O[C@@H]1CN(C)Cc1cccnc1`, the relative growth is inactive: 1.

Take `COc1ccc(S(=O)(=O)Nc2ccc3c(c2)CC(=O)N([C@@H](C)CO)C[C@@H](C)[C@@H](CN(C)S(=O)(=O)c2ccc(C)cc2)O3)cc1`: the relative growth was inactive: 1.02.

As for `C[C@@H]1CN([C@@H](C)CO)C(=O)Cc2cc(NC(=O)Nc3cccc4ccccc34)ccc2O[C@H]1CN(C)S(=O)(=O)c1ccc(F)cc1`, the relative growth was inactive: 1.02.

Regarding `CCC(=O)O[C@H]1[C@H](O[C@@H]2[C@@H](C)[C@H](O[C@H]3C[C@@](C)(OC)[C@@H](O)[C@H](C)O3)[C@@H](C)C(=O)O[C@H](CC)[C@@](C)(O)[C@H](O)[C@@H](C)C(=O)[C@H](C)C[C@@]2(C)O)O[C@H](C)C[C@@H]1N(C)C`, the relative growth was inactive: 0.947.

With `Cc1ccc(S(=O)(=O)Nc2ccc3c(c2)C(=O)N([C@H](C)CO)C[C@H](C)[C@@H](CN(C)Cc2ccncc2)OCCCC[C@H](C)O3)cc1`, the relative growth was inactive: 1.02.

As to `Nc1ncnc2c1ncn2[C@H]1O[C@@H](CO)C[C@@H]1O`, the relative growth was inactive: 1.01.

With `CC(C)NC(=O)N(C)C[C@H]1Oc2ncc(-c3ccc(C(=O)N(C)C)cc3)cc2C(=O)N([C@@H](C)CO)C[C@H]1C`, the relative growth is inactive: 0.964.

Consider `C[C@@H]1CCCCO[C@@H](CN(C)S(=O)(=O)c2ccc(Cl)cc2)[C@H](C)CN([C@H](C)CO)C(=O)c2cc(NC(=O)C3CCCCC3)ccc2O1`, for which the relative growth is inactive: 1.06.

Regarding `C[C@H]1CN([C@@H](C)CO)C(=O)c2cc(C#CC3(O)CCCC3)cnc2O[C@@H]1CN(C)S(=O)(=O)c1ccccc1`, the relative growth was inactive: 0.961.

As to `O=C(C[C@@H]1CC[C@@H]2[C@H](COC[C@H](O)CN2C(=O)c2cnccn2)O1)N1CCN(c2ccccc2)CC1`, the relative growth was inactive: 0.989.

Consider `O=c1cc(-c2ccccc2)oc2cc(O)ccc12`, for which the relative growth is inactive: 0.945.

With `C[C@H](CO)N1C[C@H](C)[C@H](CN(C)S(=O)(=O)c2ccc(Cl)cc2)OCCCC[C@H](C)Oc2ccc(NC(=O)Nc3ccccc3)cc2C1=O`, the relative growth was inactive: 0.992.

As for `C=CCOC1=N[C@@H]2[C@@H](C(=O)N(C)C(=O)N2C)N1C`, the relative growth is inactive: 0.907.

As to `Cc1ccc(S(=O)(=O)N(C)C[C@@H]2Oc3ccc(NS(=O)(=O)c4cccs4)cc3CC(=O)N([C@@H](C)CO)C[C@@H]2C)cc1`, the relative growth was inactive: 0.961.

`CS(=O)(=O)N1CCN(c2ccccc2)CC1`: the relative growth is inactive: 0.959.

`CC(=O)Oc1ccccc1C(=O)O`: the relative growth was inactive: 1.03.

Take `CCO[C@H]1OC(C(=O)N2CCN(C)CC2)=C[C@@H](c2ccc3c(c2)OCO3)[C@@H]1CCCOC(=O)NCCCCCC(=O)NO`: the relative growth was inactive: 1.02.

Consider `C[C@@H]1CCCCO[C@H](CN(C)C(=O)CCC(F)(F)F)[C@H](C)CN([C@H](C)CO)C(=O)c2cc(NC(=O)c3ccccc3)ccc2O1`, for which the relative growth is inactive: 0.971.

With `Cc1noc(C)c1NC(=O)Nc1ccc2c(c1)C(=O)N([C@H](C)CO)C[C@H](C)[C@@H](CN(C)S(=O)(=O)c1ccc(F)cc1)OCCCC[C@@H](C)O2`, the relative growth is inactive: 1.

Consider `COc1ccccc1-c1cnc2c(c1)C(=O)N([C@@H](C)CO)C[C@H](C)[C@@H](CN(C)C(=O)c1cccnc1)O2`, for which the relative growth is inactive: 1.01.

In the case of `C[C@@H]1CN([C@H](C)CO)C(=O)c2cc(NC(=O)CCC(F)(F)F)ccc2O[C@@H](C)CCCCO[C@H]1CN(C)C(=O)CCC(F)(F)F`, the relative growth is inactive: 0.983.

Turning to `C[C@@H]1O[C@@H](O[C@H]2C(=O)c3c(O)cc(O)cc3O[C@@H]2c2ccc(O)c(O)c2)[C@H](O)[C@H](O)[C@H]1O`, the relative growth was inactive: 0.936.

Regarding `COc1ccc(CN(C)C[C@@H]2OCCCC[C@@H](C)Oc3ccc(NC(=O)Nc4ccccc4)cc3C(=O)N([C@@H](C)CO)C[C@H]2C)cc1`, the relative growth is inactive: 1.

`C[C@@H]1CCCCO[C@@H](CN(C)S(=O)(=O)c2ccc(F)cc2)[C@@H](C)CN([C@H](C)CO)C(=O)c2cc(NC(=O)C3CCCCC3)ccc2O1`: the relative growth is inactive: 1.03.

`C[C@@H]1CN([C@H](C)CO)S(=O)(=O)c2ccc(C#CC3(O)CCCC3)cc2O[C@H]1CN(C)C(=O)c1cccnc1`: the relative growth is inactive: 1.02.

In the case of `C[C@H](CO)N1C[C@H](C)[C@@H](CN(C)CC2CCCCC2)Oc2ccc(NC(=O)Nc3ccc(F)cc3)cc2C1=O`, the relative growth was inactive: 1.01.

For the compound `CNC(=O)Nc1ccc(S(N)(=O)=O)cc1`, the relative growth was inactive: 1.01.

For the compound `C[C@H](CO)N1C[C@H](C)[C@H](CN(C)Cc2ccc(C(=O)Nc3ccccc3N)cc2)Oc2c(NS(=O)(=O)c3ccc(Cl)cc3)cccc2C1=O`, the relative growth is inactive: 1.

For `CC(C)(C)Oc1ccc(O)cc1`, the relative growth was inactive: 0.881.

As to `Cc1noc(C)c1S(=O)(=O)Nc1ccc2c(c1)CC(=O)N([C@H](C)CO)C[C@@H](C)[C@@H](CN(C)C(=O)NC1CCCCC1)O2`, the relative growth is inactive: 0.988.

For the compound `C1CNCCN1.CC12CCC3c4ccc(OS(=O)(=O)O)cc4CCC3C1CCC2=O` (stereo not drawn), the relative growth was inactive: 0.965.

Turning to `C[C@@]1(N)CCCC[C@@H]1C(=O)O`, the relative growth was inactive: 0.937.

As to `CCN(CC)/[N+]([O-])=N/OCOC(C)=O`, the relative growth is inactive: 1.

For the compound `O=C(C[C@H]1C[C@H]2c3cc(NC(=O)C4CCOCC4)ccc3O[C@H]2[C@H](CO)O1)NCc1ccc2c(c1)OCO2`, the relative growth was inactive: 0.888.

On to `COc1ccc(S(=O)(=O)Nc2cccc3c2O[C@@H](CN(C)CC2CC2)[C@@H](C)CN([C@@H](C)CO)C3=O)cc1`, for which the relative growth was inactive: 1.01.

Take `COC(=O)[C@H](Cc1ccccc1)N1CC2=C[C@@H](C3CC3)n3c(=O)n(C)c(=O)n3[C@H]2[C@@H]1[C@@H](O)CCn1cc(CCC(=O)NO)nn1`: the relative growth is inactive: 0.957.

Turning to `COCCn1cc2c(n1)[C@H](CNC(=O)COC)OCC2`, the relative growth was inactive: 1.04.

Regarding `COc1cc(CN2CCC(C(=O)N[C@@H](c3ccc(F)cc3)c3ccc4ccccc4n3)CC2)cc(OC)c1`, the relative growth was inactive: 0.977.

For the compound `C[C@@H]1CN([C@@H](C)CO)C(=O)Cc2cc(N(C)C)ccc2O[C@@H]1CN(C)S(=O)(=O)c1cn(C)cn1`, the relative growth was inactive: 1.

`COc1ccc(S(=O)(=O)Nc2ccc3c(c2)C(=O)N([C@@H](C)CO)C[C@@H](C)[C@H](CN(C)C(=O)Nc2cccc4ccccc24)O3)cc1`: the relative growth is inactive: 0.979.

Turning to `C[C@H](CO)N1C[C@H](C)[C@H](CN(C)S(=O)(=O)c2ccccc2)Oc2ncc(C#CC(C)(C)O)cc2C1=O`, the relative growth was inactive: 1.01.

Turning to `COc1ccc(S(=O)(=O)N(C)C[C@H]2Oc3ccc(NC(=O)Cn4cnnn4)cc3CC(=O)N([C@H](C)CO)C[C@H]2C)cc1`, the relative growth was inactive: 1.01.

Take `COc1ccc2c3c([nH]c2c1)[C@H](CO)N(Cc1nccs1)C[C@]13CCN(CC1)C(=O)C1CCOCC1`: the relative growth is inactive: 1.01.

With `NCCN1CCC(C(=O)O)CC1`, the relative growth is inactive: 1.02.

As to `S=c1cc(-c2ccccc2)oc(-c2ccccc2)c1`, the relative growth is inactive: 0.932.

As to `C[C@H](CO)N1C[C@H](C)[C@H](CN(C)S(=O)(=O)c2ccc(C#N)cc2)Oc2ncc(-c3ccc(F)cc3)cc2C1=O`, the relative growth is inactive: 0.989.

As to `C[C@@H]1CN([C@@H](C)CO)C(=O)c2cc(NC(=O)NC3CCCCC3)ccc2O[C@@H](C)CCCCO[C@@H]1CN(C)C(=O)Nc1ccc2c(c1)OCO2`, the relative growth is inactive: 1.02.

Consider `COc1ccccc1S(=O)(=O)N1C[C@H](O)COC[C@@H]2O[C@H](CC(=O)O)CC[C@H]21`, for which the relative growth was inactive: 0.989.

Take `Cc1ccc(S(=O)(=O)Nc2cccc3c2O[C@@H](CN(C)S(=O)(=O)c2cccs2)[C@@H](C)CN([C@H](C)CO)C3=O)cc1`: the relative growth is inactive: 0.961.

`C[C@H]1CN([C@@H](C)CO)C(=O)c2cccc(NS(=O)(=O)c3ccc(Cl)cc3)c2O[C@H]1CN(C)S(=O)(=O)c1cn(C)cn1`: the relative growth is inactive: 1.01.

In the case of `C[C@H]1CN([C@@H](C)CO)S(=O)(=O)c2ccc(C#Cc3ccccc3F)cc2O[C@@H]1CN(C)CC1CCOCC1`, the relative growth is inactive: 1.01.

As to `Cn1nccc1NC(=O)/C=C/C(=O)O`, the relative growth was inactive: 1.04.

Take `COc1ccc(S(=O)(=O)Nc2ccc3c(c2)C(=O)N([C@H](C)CO)C[C@@H](C)[C@@H](CN(C)S(=O)(=O)c2ccc(Cl)cc2)OCCCC[C@@H](C)O3)cc1`: the relative growth was inactive: 1.04.

Regarding `Cc1noc(C)c1NC(=O)Nc1cccc2c1O[C@@H](CN(C)Cc1ccc(C(=O)Nc3ccccc3N)cc1)[C@H](C)CN([C@H](C)CO)C2=O`, the relative growth was inactive: 1.02.

Turning to `Nc1nnnn1-c1ccccc1`, the relative growth was inactive: 0.987.

For `CC(C)[Si]1(C(C)C)O[C@@H](c2ccccc2)c2cc(C3CC3)nc(-c3ccc(Oc4ccccc4)cc3)c21`, the relative growth was inactive: 1.02.
